# Assay results from PubChem BioAssay AID1345083 (National Center for Advancing Translational Sciences (NCATS), 2018).
# Screen size: about 94,000 compounds; about 6,200 (6.6%) were called active. The shares of active, inactive and inconclusive entries below differ from those in the screen. The call rests on the fitted dose curve; in most records, active means well fitted inhibition curve with a large enough effect; inconclusive means small, poorly fitted or top-dose-only effect; inactive means flat fitted curve, though single readings scatter. Potencies beside an inconclusive call are fits to weak or partial responses and may not hold up.
# Assay: Cytotoxic Profiling in HEK 293 Cell Line of Diverse Libraries Using Quantitative High-Throughput Screening; further: nearly all actives have a fitted effect of over 60% in size
# Details: HEK 293 viability, ATP luminescence (CellTiter-Glo), 48-72 h; series mostly up to 115 µM
# Summary of the method: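 HEK 293 cells at 250 cells/well were exposed to compounds by pintool transfer for 48 or 72 hr at 37 degree Celsius, 5% CO2. Viability was read as ATP-coupled luminescence with CellTiter-Glo after 10 min at room temperature.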
# Potency means the concentration at half of the fitted maximal effect; tags describe the fitted curve by direction and shape.
row,Structure (SMILES),Potency
1,COc1ccc(-c2cc(N3CCC(NC(=O)c4ccc(Br)cc4)C3)n[nH]2)cc1 (centres undefined),"inconclusive: 79.4 µM [inhibitor, partial curve, poor fit]"
2,O=C(Cc1ccc(C(F)(F)F)cc1)N1CCC2OCCN(Cc3ccccc3)C(=O)C2C1 (centres undefined),"inconclusive: 50.1 µM [inhibitor, partial curve, poor fit]"
3,Cc1noc(-c2cn(C3CCN(C(=O)c4cccc(C(F)(F)F)c4)CC3)nn2)n1,"inconclusive: 39.8 µM [inhibitor, partial curve, poor fit]"
4,CCOC(=O)c1ccc(NC(=O)c2ccc3c(c2)N(C)C2CCCCN2C3=O)cc1 (centres undefined),active: 35.5 µM
5,O=C(NCc1cccs1)C1=NO[C@@H]2CN(c3cccnc3)C[C@H]12,"inconclusive: 79.4 µM [inhibitor, partial curve, poor fit]"
6,COc1ccc(-c2[nH]nc3ncc(C(=O)N(C)Cc4ccccc4)nc23)c(C)c1,"inconclusive: 39.8 µM [inhibitor, partial curve, poor fit]"
7,Cn1ccc(NC(=O)[C@@H]2C[C@@H](c3ccc(F)cc3)N(Cc3ccccc3)C2)n1,active: 50.1 µM
8,Cc1ccc(-n2nc(C)c([C@H]3C=C[C@@H](OC(=O)Nc4cccc(F)c4)C3)c2C)cc1Cl,"inconclusive: 15.8 µM [inhibitor, full curve, poor fit]"
9,Cn1ncc2c(C(=O)NCC3CC3)cc(-c3ccccc3C(F)(F)F)nc21,"inconclusive: 79.4 µM [inhibitor, partial curve]"
10,CC1(c2ccccc2)N(Cc2ccccc2)C(=O)OC12CCN(C(=O)CN1CCOCC1)CC2 (centres undefined),inactive
11,CCOc1ccccc1C(=O)N1CCC(Oc2nccnc2N(C)C)C1 (centres undefined),"inconclusive: 44.7 µM [inhibitor, partial curve, poor fit]"
12,Cc1ccc(-c2nccn3cc(C(=O)N4CCN(c5ccccn5)CC4)nc23)cc1,"inconclusive: 44.7 µM [inhibitor, partial curve, poor fit]"
13,COCc1cc(=O)n(CC(=O)Nc2cccc(C(F)(F)F)c2)c(N2CCOCC2)n1,"inconclusive: 89.1 µM [inhibitor, single point]"
14,O=C(c1ccc2c(c1)OCO2)N1CCCC2(CNc3ncccc3[S+](=O)([O-])N2)C1 (centres undefined),inactive
15,CC(C)n1cc(CN2CC[C@@H](c3ccc4ccccc4c3)[C@H](O)C2)cn1,"inconclusive: 31.6 µM [inhibitor, partial curve]"
16,COc1ccc(C(=O)Nc2nc3c(s2)C[C@@H]2[C@](C)(CO)[C@H](O)CC[C@@]2(C)[C@@H]3CC(=O)NC(C)C)cc1,inactive
17,O=C(NCc1cccc(C(F)(F)F)c1)C1CCCN(Cc2cccc(-c3ccsc3)c2)C1 (centres undefined),active: 31.6 µM
18,O=C1[C@@H]2C[C@@H](CN2C2CCOCC2)Oc2ccccc2N1Cc1ccccc1,"inconclusive: 63.1 µM [inhibitor, partial curve, poor fit]"
19,CN1c2cc(C(=O)Nc3ccc(OC(F)(F)F)cc3)ccc2C(=O)N2CCCCCC21 (centres undefined),"inconclusive: 50.1 µM [inhibitor, partial curve, poor fit]"
20,COc1cc(C(C(=O)O)N(C)Cc2c(C)nn(C)c2C)ccc1N (centres undefined),inactive
21,COc1ccc(S(=O)(=O)N2CCc3c(C(=O)NCCc4cccs4)cccc32)cc1,active: 25.1 µM
22,O=C(NCC(=O)N1CCC(Cc2ccccc2)CC1)c1ccc(-c2cnc3ccccc3c2)cc1,active: 10 µM

row,Structure (SMILES),Potency
1,COc1ccc(C(=O)N2CCN(C(=O)c3ccccc3)[C@H](C(=O)N[C@H]3CCCNC3=O)C2)cc1,inactive
2,COc1ccc(-c2ccnc(N[C@H]3CO[C@H]4[C@@H]3OC[C@@H]4NC(=O)NCc3ccccc3)n2)cc1,"inconclusive: 50.1 µM [inhibitor, partial curve, poor fit]"
3,c1ccc(CN2CCC[C@H]2c2nc(-c3ccc(OC4CCCCC4)nc3)no2)nc1,active: 63.1 µM
4,CC(NC(=O)C1CCN(c2cc(C(F)(F)F)ncn2)CC1)c1ccc(F)cc1 (centres undefined),"inconclusive: 28.2 µM [inhibitor, full curve, poor fit]"
5,COc1ccc(-n2nc3n(c2=O)CCN(Cc2ccc(F)cc2)C3)cc1,"inconclusive: 39.8 µM [inhibitor, full curve, poor fit]"
6,O=C(c1c(OCC2CC2)cc(=O)n2c1CCCCC2)N1CCOCC1,inactive
7,O=C(c1ccc(N2CCCC(O)C2)nc1)N1CCC(CCc2ccccc2)CC1 (centres undefined),"inconclusive: 50.1 µM [inhibitor, partial curve, poor fit]"
8,CN1CCC(NC[C@H]2Cn3c(-c4ccc(F)cc4)cnc3CO2)CC1,"inconclusive: 100 µM [inhibitor, partial curve]"
9,O=C1NC2(CCN(Cc3ccccc3C(F)(F)F)C2)OCc2ccccc21 (centres undefined),"inconclusive: 79.4 µM [inhibitor, single point]"
10,O=C(c1ccc(=O)[nH]c1)N1CCC2(CCCN(Cc3ccccc3F)C2=O)C1 (centres undefined),inactive
11,Cc1ccc(-c2ccccc2CN2CCC(C(=O)N3CCCC3)CC2)cc1Cl,"inconclusive: 50.1 µM [inhibitor, partial curve, poor fit]"
12,CCN(CC)C(=O)CC[C@@H]1CNC(=O)[C@@H]2C[C@H](NCc3ccc(F)cc3)CN12,inactive
13,CNC(=O)c1cc(-c2ccccc2OC)cc2c1OCCN2Cc1cccnc1,"inconclusive: 126 µM [inhibitor, single point]"
14,Cc1noc(C)c1-c1cc2c(c(-c3ccccc3O)c1)C(=O)N(C)C2=O,inactive
15,COc1ccc(CN2CC(Oc3ccccc3C(=O)NCc3ccccc3)C2)c(OC)c1,active: 50.1 µM
16,COc1ccc2[nH]cc(CCNC(=O)C3Cn4cccc4C(=O)N3Cc3cccnc3)c2c1 (centres undefined),active: 89.1 µM
17,CC[C@H]1CN(C(=O)N2CCOCC2)CC[C@H]1CC(=O)NCc1ccccc1OC,inactive
18,COc1cc(NC(=O)CN2C(=O)NC3(CCC(C(C)(C)C)CC3)C2=O)cc(OC)c1OC (centres undefined),"inconclusive: 89.1 µM [inhibitor, single point]"
19,COc1ccccc1-c1cccc(CN2CCC(N[S+](=O)([O-])c3c(C)noc3C)CC2)c1,active: 35.5 µM
20,Cc1[nH]cnc1CN1CCCC(c2nnc(CN3CCC(O)CC3)n2C)C1 (centres undefined),inactive
21,COc1ccc(OC)c(CN2CC[C@@H]3OCC(=O)N(Cc4ccccc4)[C@H]3CC2)c1,"inconclusive: 126 µM [inhibitor, single point]"
22,COCc1ccc(C(=O)N2CCc3[nH]nc(-c4ccccc4F)c3C2)s1,"inconclusive: 31.6 µM [inhibitor, partial curve]"

row,Structure (SMILES),Potency
1,COc1cc(NC(=O)CN2C(=O)NC3(CCC(C)CC3)C2=O)cc(OC)c1 (centres undefined),"inconclusive: 39.8 µM [inhibitor, full curve]"
2,Cc1ccccc1C(=O)NCCNC(=O)c1ccc(-c2cncnc2)cc1,inactive
3,Cn1ncc2c(C(=O)NCc3ccccc3)cc(-c3ccccc3C(F)(F)F)nc21,"inconclusive: 50.1 µM [inhibitor, partial curve, poor fit]"
4,Cc1cc2nc3n(c(=O)c2n1CC(=O)NCc1ccc(F)cc1)CCCCC3,"inconclusive: 31.6 µM [inhibitor, full curve]"
5,COCCNc1cc(-c2noc([C@@H]3CCCN3C3CCN(C(C)=O)CC3)n2)ccn1,inactive
6,COc1cccc(CNC(=O)c2cc(-c3cc(Cl)cc(Cl)c3)nc3c2cnn3C)c1,"inconclusive: 5.01 µM [inhibitor, full curve, poor fit]"
7,Cc1ccc(NC(=O)N2CCC(CCNC(=O)c3n[nH]c4ccccc34)CC2)cc1F,active: 79.4 µM
8,Cc1cc(C)n(CC(=O)N2CCC(c3nc(CCOCC4CCCC4)no3)C2)n1 (centres undefined),"inconclusive: 89.1 µM [inhibitor, single point]"
9,Cc1ccc(-c2cccc(CN3CCCC(NC(=O)NC4CCCC4)C3)c2)cc1Cl (centres undefined),inactive
10,O=C(NCCC1=CCCCC1)c1ccc(N2CC3CC(C2)[C@H]2CCCC(=O)N2C3)nc1 (some centres undefined),"inconclusive: 89.1 µM [inhibitor, single point]"
11,Cc1nonc1CN1CCN(c2cc(C3CC(N)C3)nc(N)n2)CC1 (centres undefined),inactive
12,COc1ccc(Cl)cc1NC(=O)CCC1CCCN(C(=O)CCc2c(C)noc2C)C1 (centres undefined),"inconclusive: 89.1 µM [inhibitor, single point]"
13,CCc1ccc(C(=O)NC2CCN(c3cnn(CCOC)c(=O)c3)CC2)cc1,inactive
14,COc1cccc(-c2cn3c(n2)NCCC3)c1,"inconclusive: 8.91 µM [inhibitor, full curve]"
15,O=C(Cn1nc2n(c1=O)CCCC2)Nc1ccc2c(c1)OCO2,inactive
16,CCOC(=O)C(Cc1cc(N2CCN(C(=O)c3c(Cl)cccc3Cl)CC2)ccc1Cl)OC (centres undefined),"inconclusive: 50.1 µM [inhibitor, partial curve, poor fit]"
17,CCCCNC(=O)c1cccc(-c2cc(N3CCN(C)CC3)nc(N)n2)c1,"inconclusive: 44.7 µM [inhibitor, partial curve, poor fit]"
18,CCCC(=O)N1Cc2ccccc2CC2(CCN(Cc3ccc(C(F)(F)F)nc3)CC2)C1,"inconclusive: 50.1 µM [inhibitor, partial curve, poor fit]"
19,N#Cc1cccc(C(=O)N2CCC3(CC2)CC(Cc2ccc(F)cc2)CCO3)c1 (centres undefined),"inconclusive: 50.1 µM [inhibitor, partial curve, poor fit]"
20,C=CCN1C[C@@H]2C[C@@H](C(=O)NC)N(C(=O)c3cccc4c3OC(F)(F)O4)c3cccc(c32)C1=O,"inconclusive: 39.8 µM [inhibitor, single point]"
